Measured values from PMC4336329 (PLoS ONE, 2015).
About 14,000 (4.5%) of roughly 310,000 compounds showed an effect of 50% or more. The effect is printed as a negative number. Some of the results follow.

The molecules below were run against human ether-à-go-go-related gene (hERG) potassium channel (human, UniProt Q12809) (assay: primary screen, population patch clamp on CHO cells stably expressing hERG).
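Further: peak tail current of the secondary pulse compared with the same well before compound.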

Chain of human ether-à-go-go-related gene (hERG) potassium channel (Q12809 whole entry, looked up): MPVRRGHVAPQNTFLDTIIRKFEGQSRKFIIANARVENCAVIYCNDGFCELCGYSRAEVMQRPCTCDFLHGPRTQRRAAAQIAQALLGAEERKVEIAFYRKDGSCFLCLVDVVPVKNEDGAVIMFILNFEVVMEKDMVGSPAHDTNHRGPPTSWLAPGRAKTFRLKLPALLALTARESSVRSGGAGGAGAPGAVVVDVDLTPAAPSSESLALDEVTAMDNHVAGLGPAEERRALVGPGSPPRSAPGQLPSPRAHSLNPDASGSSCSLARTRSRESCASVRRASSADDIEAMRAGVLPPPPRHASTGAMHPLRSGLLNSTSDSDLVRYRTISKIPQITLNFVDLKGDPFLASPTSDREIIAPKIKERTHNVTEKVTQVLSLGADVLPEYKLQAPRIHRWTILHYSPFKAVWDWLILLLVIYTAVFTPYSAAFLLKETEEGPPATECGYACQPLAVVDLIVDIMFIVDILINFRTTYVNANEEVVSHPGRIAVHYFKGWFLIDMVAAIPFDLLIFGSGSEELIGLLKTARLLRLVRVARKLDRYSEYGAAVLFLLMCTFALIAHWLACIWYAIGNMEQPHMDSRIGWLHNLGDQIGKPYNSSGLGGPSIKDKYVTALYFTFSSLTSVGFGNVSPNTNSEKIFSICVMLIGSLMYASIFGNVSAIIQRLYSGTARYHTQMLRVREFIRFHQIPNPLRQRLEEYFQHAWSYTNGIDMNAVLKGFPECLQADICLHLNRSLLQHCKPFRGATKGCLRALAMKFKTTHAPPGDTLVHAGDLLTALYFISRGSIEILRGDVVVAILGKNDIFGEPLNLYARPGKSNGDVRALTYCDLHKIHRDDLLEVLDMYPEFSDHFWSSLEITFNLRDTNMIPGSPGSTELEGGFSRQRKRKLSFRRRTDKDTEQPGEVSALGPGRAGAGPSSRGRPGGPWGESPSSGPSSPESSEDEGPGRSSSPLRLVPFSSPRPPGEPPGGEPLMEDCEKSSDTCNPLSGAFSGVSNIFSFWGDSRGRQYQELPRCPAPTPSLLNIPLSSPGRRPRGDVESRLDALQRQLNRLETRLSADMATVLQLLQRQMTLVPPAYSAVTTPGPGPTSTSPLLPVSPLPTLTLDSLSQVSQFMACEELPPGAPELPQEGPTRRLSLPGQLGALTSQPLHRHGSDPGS

First: C/C(CCc1ccccc1)=N\NC(=O)C(=O)Nc1cccc(Cl)c1
Second: Cc1cc(NC(=O)c2ccc(Cl)cc2)ccc1NC(=O)c1ccccc1Cl
The “hERG current change (%, negative = inhibition) at 10uM” value of the first is higher: 16.1% for the first, 9.97% for the second.

Compared with `O=C(c1ccc(Cl)cc1)C1CCCN(Cc2cccc3cnccc23)C1` (centres unmarked), `CCOC(=O)c1ccc(S(=O)(=O)n2c(CN3CCCCC3)nc3ccccc32)cc1` is higher in “hERG current change (%, negative = inhibition) at 10uM” value: -44.8% for the first, 12.9% for the second.

Going from `CCNC(=S)N1CCN(CC(=O)Nc2ccc(OC)cc2)CC1` to `COc1ccc(NC(=S)Nc2ccc3cn[nH]c3c2)cc1`, the “hERG current change (%, negative = inhibition) at 10uM” value rises from -34.3% to -11.9%.

First: CCN(C(=O)c1cc(Cl)ccc1Cl)C1CCS(=O)(=O)C1 (centres unmarked)
Second: CC1(C(=O)O)CCC(C(=O)Nc2ccc(Cl)c(Cl)c2)C1(C)C (centres unmarked)
The “hERG current change (%, negative = inhibition) at 10uM” value of the first is lower: -13.8% for the first, 13% for the second.

Going from `O=c1c2ccccc2nc(SCc2nc3ccccc3s2)n1Cc1ccco1` to `O=C(Nc1cccc(F)c1)c1cc(-c2ccco2)nc2ccccc12`, the “hERG current change (%, negative = inhibition) at 10uM” value falls from 18% to 9.26%.

First: Cc1cc(C)cc(NC(=O)C2CCN(S(=O)(=O)c3ccc4[nH]c(=O)ccc4c3)CC2)c1
Second: CC(=O)N1CCCc2cc(S(=O)(=O)N3CCCC(C(=O)Nc4ccccc4C)C3)ccc21 (centres unmarked)
The “hERG current change (%, negative = inhibition) at 10uM” value of the first is lower: -8.87% for the first, 10.9% for the second.

First: Cc1ccn2cc(CNS(=O)(=O)c3ccc4ccccc4c3)nc2c1
Second: Cn1c(-c2ccc(C(=O)c3ccccc3)s2)nc2ccccc21
The “hERG current change (%, negative = inhibition) at 10uM” value of the first is lower: 1.8% for the first, 11.5% for the second.

Going from `CCc1nc(C)cn1S(=O)(=O)c1cc(Cl)c(OC)cc1Cl` to `COc1cc(OC)c(NC(=O)c2sc3ncn(CC(=O)N4CCN(c5ccccn5)CC4)c(=O)c3c2C)cc1Cl`, the “hERG current change (%, negative = inhibition) at 10uM” value falls from -0.954% to -2.27%.

Going from `CCCC1(c2ccccc2)NC(=O)N(CC(=O)Nc2cc(OC)cc(OC)c2)C1=O` (centres unmarked) to `CCOC(=O)c1ccccc1NC(=O)Cc1c(C(=O)O)n(C)c2ccccc12`, the “hERG current change (%, negative = inhibition) at 10uM” value falls from 8.48% to 5.03%.

First: Cc1ccccc1CCNCc1ccc(Br)cc1
Second: COc1ccc(CNCCc2ccc3c(c2)OCO3)cc1Br.O=C(O)C(=O)O
The “hERG current change (%, negative = inhibition) at 10uM” value of the first is lower: -53.6% for the first, -50.5% for the second.

Going from `CC(/C=N/n1cnnc1)=C\c1ccccc1` to `Cc1ccc(-c2cc(N)n(-c3ccccc3)n2)cc1`, the “hERG current change (%, negative = inhibition) at 10uM” value rises from -5.4% to 9.36%.

First: CCN(C(=O)COC(=O)c1cc(C)oc1C)c1c(N)n(Cc2ccccc2)c(=O)[nH]c1=O
Second: COCCCN(C(=O)CCOc1ccc(C)cc1)c1c(N)n(Cc2ccccc2)c(=O)[nH]c1=O
The “hERG current change (%, negative = inhibition) at 10uM” value of the first is higher: 9.02% for the first, -20.2% for the second.

Compared with `CCOC(=O)C1CCN(C(=O)Cn2cnc3sc(C)c(S(=O)(=O)N4CCC(C)CC4)c3c2=O)CC1`, `Cc1c(C(=O)N2CCC(C)CC2)sc2ncn(CC(=O)N3CCC(C)CC3)c(=O)c12` is higher in “hERG current change (%, negative = inhibition) at 10uM” value: -67.9% for the first, 0.105% for the second.

Compared with `CCC1CCCCN1C(=O)c1cc2c(=O)n3cccc(C)c3nc2s1` (centres unmarked), `CCC1CCc2sc(C(=O)N3CCCN(C)CC3)cc2C1` (centres unmarked) is lower in “hERG current change (%, negative = inhibition) at 10uM” value: 4.01% for the first, -12.9% for the second.

Going from `COCCn1c(SCC(=O)Nc2nnc(C)s2)nnc1-c1c[nH]c2ccccc12` to `Cc1cnc(NC(=O)CSc2nnc(COc3ccccc3)o2)s1`, the “hERG current change (%, negative = inhibition) at 10uM” value rises from -10.6% to 2.23%.

Compared with `CS(=O)(=O)N1CCC(C(=O)N2CCN(C(c3ccccc3)c3ccccc3)CC2)CC1`, `O=C(Cc1cccc(NC(=O)C2CCN(C(=O)C3CCC3)CC2)c1)Nc1cccc(C(=O)N2CCCC2)c1` is higher in “hERG current change (%, negative = inhibition) at 10uM” value: -0.257% for the first, 1.66% for the second.

Going from `CCc1ccc(CNC(=O)C2CCN(S(=O)(=O)N3CCC4(CC3)OCCO4)CC2)cc1` to `CCOC(=O)c1ccc(NS(=O)(=O)N2CCCCCC2)cc1`, the “hERG current change (%, negative = inhibition) at 10uM” value falls from -4.12% to -10%.

Compared with `CC(=O)NNS(=O)(=O)c1ccc(-c2cc(C(F)(F)F)n(C)n2)s1`, `COC(=O)c1c(C(C)=O)cnc2ccc(Br)cc12` is lower in “hERG current change (%, negative = inhibition) at 10uM” value: -0.0144% for the first, -1.23% for the second.

First: O=C(Nc1ccc(F)cc1)Nc1nnc(-c2ccccc2)o1
Second: CSc1ccc(-c2sc(Nc3ccccc3)n[n+]2-c2ccc(F)cc2)cc1.[Cl-]
The “hERG current change (%, negative = inhibition) at 10uM” value of the first is lower: -0.0939% for the first, 1.55% for the second.

Going from `O=C(COc1ccc2c3c(c(=O)oc2c1)CCC3)N1CCCCC1` to `CC1CCN(C(=O)COC(=O)c2cc([N+](=O)[O-])ccc2N2CCOCC2)CC1`, the “hERG current change (%, negative = inhibition) at 10uM” value falls from 3.84% to -15%.

Compared with `CSc1ccccc1C(=O)NC1CCCCCC1`, `CCCC(C(=O)NC1CCCC1)N(C(=O)Cn1nnc(-c2ccc(C)o2)n1)c1ccccc1OC` (centres unmarked) is lower in “hERG current change (%, negative = inhibition) at 10uM” value: 6.76% for the first, -19.6% for the second.

Going from `Cc1ccc(NC(=O)CN(C)C(=O)c2ccc(C(F)(F)F)cc2)cc1` to `Cn1ccc(C(=O)Oc2ccc(C(=O)Nc3ccc(F)cc3F)cc2)n1`, the “hERG current change (%, negative = inhibition) at 10uM” value rises from 7.17% to 12.5%.

Compared with `CC1c2cc3c(cc2CCN1C(=O)c1ccc(Br)cc1)OCCCO3` (centres unmarked), `Cc1ccc(C(=O)CC2(O)C(=O)N(CN3CCOCC3)c3ccccc32)cc1` (centres unmarked) is higher in “hERG current change (%, negative = inhibition) at 10uM” value: -41% for the first, -2.38% for the second.

First: Cc1cc2oc3ccc(NCCCn4ccnc4)cc3c(=O)c2cc1C
Second: COC(=O)C1=C(N)Oc2cc(C)n(CCCn3ccnc3)c(=O)c2C1c1cccc(Cl)c1 (centres unmarked)
The “hERG current change (%, negative = inhibition) at 10uM” value of the first is higher: 6.32% for the first, -69.7% for the second.

Compared with `Nc1nonc1-c1nc2ccccc2n1Cc1ccc(F)cc1Cl`, `Clc1ccccc1Nc1nc2ccccc2o1` is higher in “hERG current change (%, negative = inhibition) at 10uM” value: 4.91% for the first, 10.5% for the second.

First: O=C(CN1C(=O)C2CCCCC2C1=O)Nc1nc(-c2ccccn2)cs1 (centres unmarked)
Second: COc1ccccc1N(CC(=O)NCC1CCCO1)C(=O)CCC(=O)Nc1nccs1 (centres unmarked)
The “hERG current change (%, negative = inhibition) at 10uM” value of the first is lower: -0.211% for the first, 4.95% for the second.

First: CCOC(=O)c1c(NC(=O)C2=C(C)NC(=S)NC2c2ccc(F)cc2F)sc(C)c1C (centres unmarked)
Second: CCOC(=O)c1c(NC(=O)CSc2nnnn2C)sc(CC)c1C
The “hERG current change (%, negative = inhibition) at 10uM” value of the first is higher: -5.84% for the first, -7.7% for the second.

First: O=C(Cc1cccs1)Nc1ccc([N+](=O)[O-])cc1
Second: CCOC(=O)c1cc(-c2cccc([N+](=O)[O-])c2)nc2[nH]c(=O)[nH]c(=O)c12
The “hERG current change (%, negative = inhibition) at 10uM” value of the first is higher: 4.02% for the first, -15.7% for the second.

Going from `Cc1cccc(C)c1NC(=O)CN(C)C(=O)COc1cccc2c1OC(C)(C)C2` to `CCOCC(=O)Nc1c(C(=O)OCC)oc2ccccc12`, the “hERG current change (%, negative = inhibition) at 10uM” value falls from 11.5% to -11.1%.

Going from `O=c1oc2ccccc2c2c1ncn2CCN1CCOCC1` to `c1ccc2[nH]c(SCCN3CCOCC3)nc2c1`, the “hERG current change (%, negative = inhibition) at 10uM” value rises from -8.76% to -0.944%.

Compared with `C=CCc1cc(Cl)ccc1OCCCNC(C)CC.O=C(O)C(=O)O` (centres unmarked), `CCOc1ccc(/C=C/C(=O)N(CC)CC(=O)Nc2ccc3c(c2)OCCO3)cc1OCC` is higher in “hERG current change (%, negative = inhibition) at 10uM” value: -55.7% for the first, -2.6% for the second.

Going from `Cc1cc([N+](=O)[O-])c(Cl)cc1NC(=O)C(C)C` to `Cc1cc(C)cc(N2CC(C)(C)C2=O)c1`, the “hERG current change (%, negative = inhibition) at 10uM” value rises from 2.72% to 3.97%.

Compared with `CC1Cc2ccccc2N1C(=O)CSc1nncn1C` (centres unmarked), `CN1CCC(OC(=O)C2c3ccccc3Oc3ccccc32)CC1.Cl` is lower in “hERG current change (%, negative = inhibition) at 10uM” value: 12.8% for the first, -11.4% for the second.

First: COc1ccc(C(OCC(O)CNCCc2ccc(S(N)(=O)=O)cc2)c2ccc(OC)cc2)cc1 (centres unmarked)
Second: NS(=O)(=O)c1ccc(CCNC(=O)CCCn2c(SCC(=O)N3CCCC3)nc3ccsc3c2=O)cc1
The “hERG current change (%, negative = inhibition) at 10uM” value of the first is lower: -43.2% for the first, -4.32% for the second.

Going from `CN(C)N1C(N)=C(C#N)C(c2ccccc2)C2=C1CC(C)(C)CC2=O` (centres unmarked) to `N#Cc1ccccc1CSc1nnc(Cc2ccccc2)o1`, the “hERG current change (%, negative = inhibition) at 10uM” value rises from 2.33% to 3.77%.

Compared with `O=c1c2cc(N3CCOCC3)ccc2[nH]c(=S)n1Cc1ccc(Cl)cc1`, `O=C(COc1ccc(S(=O)(=O)N2CCOCC2)cc1)NCc1ccco1` is higher in “hERG current change (%, negative = inhibition) at 10uM” value: -6.97% for the first, 6.51% for the second.

First: Cc1nn(C)c(C)c1NC(=O)CSc1nc(Cc2ccccc2)nc2c1cnn2-c1ccccc1
Second: Brc1ccccc1-c1nnc(COc2ncnc3c2cnn3-c2ccccc2)o1
The “hERG current change (%, negative = inhibition) at 10uM” value of the first is higher: 13.2% for the first, 7.27% for the second.

Compared with `c1ccc(CN2CCN(c3cnc4ccccc4n3)CC2)cc1`, `COCCOc1ccc(C(F)(F)F)cc1Nc1nc2ccccc2o1` is higher in “hERG current change (%, negative = inhibition) at 10uM” value: -19.6% for the first, 1.14% for the second.

Going from `COc1ccc(C(C)=O)cc1COC(=O)c1ccc(S(=O)(=O)N(C)C)cc1` to `CN1CCc2c(sc(NC(=O)c3ccc(S(=O)(=O)N4CCOCC4)cc3)c2C(N)=O)C1`, the “hERG current change (%, negative = inhibition) at 10uM” value rises from -2.42% to -1.12%.

Going from `Cc1cccc(Nc2nc3c(s2)CCCC3)c1` to `COc1cc(C(C(=O)NC2CCCCC2)N(C(=O)c2snc(C(N)=O)c2N)c2ccc(C)cc2)ccc1O` (centres unmarked), the “hERG current change (%, negative = inhibition) at 10uM” value rises from -8.11% to 2.2%.

Compared with `CCCCN(C)C(=O)C1CCC(CNS(=O)(=O)c2ccc3c(c2)CC(C)N3C(=O)C2CC2)CC1` (centres unmarked), `CCN(CC)CCOC(=O)C1(c2ccccc2)CCCC1.Cl` is higher in “hERG current change (%, negative = inhibition) at 10uM” value: -9.69% for the first, -4.03% for the second.

First: c1cncc(-c2ccnc3ncnn23)c1
Second: O=C(O)c1ccc(CSc2nnc(-c3cccnc3)n2-c2ccc(Br)cc2)cc1
The “hERG current change (%, negative = inhibition) at 10uM” value of the first is lower: -4.79% for the first, 15.1% for the second.

Compared with `COc1ccccc1-c1noc(-c2ccco2)n1`, `S=C1NCCOCCOCCOCCOCCNC(=S)NCCOCCOCCOCCOCCN1` is higher in “hERG current change (%, negative = inhibition) at 10uM” value: -0.686% for the first, 0.341% for the second.
